From the supplement of paper PMC12632987
In all, about 4,500 sequences were measured (“median log2 fold change of GCK-ALFA target abundance (FLAG IP / Myc IP barcode read proportion)”: median about 0.078, lowest 2% from about -0.6 on). The list shows a part of the results.

B1: GBRAP_160_4424 (protein)
chain: GSLVERVDRIMEEGRELVVELVEEGRREEALAAARVTAGEVLLEVDSDESVSEEAREKVDAILDALIAELEANRDASPEEVRAMLERARAEVLAVLEEYT
B2: GBRAP_78_6634 (protein)
chain: EIEELLEKAGEKLAEAAKLALSLPLDLRAEVLDHLSDALVDIEEAEENGKLEEELKEAIESTEKAIKLLEENASEKTEPILKLVKEALKLLKKALELVKK
B3: GBRAP_14_3798 (protein)
chain: MEEREKEIEEIAEETKEEIEEIMEEADEEVREEVLELVEEARKTIIEKKLNEDEAAKLNDETVAKIAEILEEADPEVRAQVLATVAIHGGEAILEIAELE
B4: GBRAP_11_2755 (protein)
chain: KKEKLKEMSKLAEELAKLVEKLLKEGVDNEELIKEAEKTLKELSELTKKYGDEDDKKLVKIAEELFKKALEDKENREEYFKELLAVARVLAGNYLLDYEE
B5: GBRAP_160_4765 (protein)
chain: SEELEKLKEEIEEIFDEHIELLKEVPREEAVTVVRGAMGEVLMLAMSSEAVSDELEEEIGKIMDEAEERAEANKDAPVEVHIEILEEAREEILSLLEKEI
B6: GBRAP_128_3280 (protein)
chain: PNPEVVARARDFVDRIAASDPEEARRLAEEFAAWLGSISTEEAAQAVEVVEERLHLLSVEHLEILADVLEEQRPLFDPEKANLVADLQVAALNEAEEKEE
B7: GBRAP_128_3281 (protein)
chain: ANPEIVKKAKEFVEKIKNSNPEEARKLAEEFAEWLGSISLEEAEQAVEVVEERLHELSVEHLEILADVLREKRDEYDEGKANLVADLEVAALNEAVEKEE
B8: GBRAP_125_3067 (protein)
chain: GEEEDLEDLAYIAKALGLSEEDVKELVELARKSSIKNTLYALFLAEGYEEVAELVEKITEEQAKEVLRRVKEELEKNPELSKEEVVELVKEELEKAIKEQ
B9: GBRAP_139_3761 (protein)
chain: DEREEKVKKAAELTKKLVAGDEEAAKELAELAKSVDDETLKAIADAIRETLKGQDPDTIEKARDLLEKELKEVGASEETILLIEGAIDAAEAEAIAAELA
B10: GBRAP_160_4303 (protein)
chain: SEEFEELMKEIKEIAEEALKMIEGQTKEEQKTIVKVALGEIILLADESEAISDELEEEIDKIADEAEEYLDANPDLTEEEIKELLKEAVEKILELIKERS
B11: GBRAP_160_4751 (protein)
chain: SEALKKLKEEVKKIFEEGIEMLKEVPAEEAPTVLRGVMGEVLMEVFSSEAASDELEEEVGEVVDKAEAEAAANANAPVEYHIELLEKAKKEILEIIEKEI
B12: GBRAP_184_5341 (protein)
chain: SILEAHIEGKSLEEIVAEAGKYLKEAAAKGAALLISIDASGFSDEELVKLVEEIGKLAKEYGVKDLTLGLDKEVDEETADKLLEVADKYGIRLTVALKDE
B13: GBRAP_160_4850 (protein)
chain: DEKLKKVEEELNKARDFVLSLVPEVTVEQLAKFYETEISSVLLELYEKGYINEEAEDAGLELAKEARAALLAAADATPEEIRALIEKSTAEMIEKIKELL
B14: GBRAP_83_6894 (protein)
chain: MEEITVVANSDNIEEAFKIAIDLSKEEGYKVSIEAIITPESVEKLKKSFEELAKEKIDVELTIYAEGMTEEEAEKLKKELEEIAKKYGVNVKIEVILVEP
B15: GBRAP_160_4641 (protein)
chain: SPSLEELKKIVEEGTKIVLEYIDEGNLENAIAALRVMVGEVVMEMVEDPRFSDEDVDEIAELGDKAVKELEAAKGASKEELKKLVEKAAEALKKKLEEFY
B16: GBRAP_128_3342 (protein)
chain: IDEERLEEVRELAEAMIEADDEEAEELARELMELLVTLSLEEVEEAAKIIRELLPKLSAEHLEILADELREYRPLFSPEKALIVNDLEVEALNEAVEKEE
B17: GBRAP_11_2849 (protein)
chain: KKELLKKIAEKAEELIKLLEELKEKGVDDEELLKKVREKMEELKKLVEKAKDESLIKIAEIAKENIEKIETDPSNKEEYVNNAIAAVRTLKGQVLLEIEE
B18: GBRAP_184_5257 (protein)
chain: KTLEETIEVSNVEELKKKLDEIGKKALEEKADVVILLEVEKLTKEMIDALFEKIKEMKAKGYKGKVTIGITADLTEEMIDYVLEKADEAGVNVALAIPEE
B19: GBRAP_26_5466 (protein)
chain: MEEAFKKAREKFDEVAAKLPNPTAAAALRAEADTELEELEERIEAGEDIEKAVKEAKEEFLKEAREILTDAGLPEELIEATLKEFEEIFKELEKELKKEQ

Each binder was assayed against GABARAP, O95166 (assay: median log2 fold change of GCK-ALFA target abundance (FLAG IP / Myc IP barcode read proportion) (log2 ratio); each designed protein is fused to an ALFA-tag nanobody in HEK293 cells to bring the named protein to FLAG-tagged glucokinase (GCK); Myc marks an untargeted standard; higher = target protein stabilised (more abundant)). Details: target protein: 3xFLAG-MCP-GCK-ALFA reporter; HEK293 landing pad (RPLP).
Procedure, shortened: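 Binders fused to an ALFA nanobody were recombined as a library into HEK293 landing-pad cells, which were induced with 2 μg mL^−1 doxycycline and then transfected to express a FLAG-tagged target and a Myc-tagged standard. After 48 h, circular RNA barcodes recovered by anti-FLAG and anti-Myc immunoprecipitation of lysates were reverse transcribed, amplified and sequenced. Each binder's target abundance is the median log2 ratio of FLAG to Myc barcode read proportions, from barcodes present at ≥10^−7 in both replicates, binders carrying ≥3 barcodes per replicate, a 10^−6 pseudocount and pooled replicates.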

GABARAP, O95166, sequence (O95166 whole entry, the tested form may be a part): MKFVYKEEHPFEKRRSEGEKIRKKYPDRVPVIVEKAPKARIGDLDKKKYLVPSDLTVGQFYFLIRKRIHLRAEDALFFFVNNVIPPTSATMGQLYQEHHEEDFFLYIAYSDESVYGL

Binder	median log2 fold change
B1	0.208
B2	0.149
B3	0.252
B4	0.189
B5	0.134
B6	0.21
B7	0.0787
B8	0.04
B9	0.298
B10	-0.126
B11	-0.117
B12	0.25
B13	0.0425
B14	0.16
B15	0.217
B16	-0.176
B17	0.662
B18	0.0132
B19	0.217
